Source: publication PMC4336329 (PLoS ONE, 2015)
The campaign covered roughly 310,000 compounds. About 14,000 (4.5%) showed an effect of 50% or more. Effects have a minus sign here. This is one part of the list.

Target: human ether-à-go-go-related gene (hERG) potassium channel (human, UniProt Q12809)
Assay: primary screen, population patch clamp on CHO cells stably expressing hERG
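Also: peak tail current of the secondary pulse compared with the same well before compound.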

Sequence of human ether-à-go-go-related gene (hERG) potassium channel (Q12809 whole entry, looked up): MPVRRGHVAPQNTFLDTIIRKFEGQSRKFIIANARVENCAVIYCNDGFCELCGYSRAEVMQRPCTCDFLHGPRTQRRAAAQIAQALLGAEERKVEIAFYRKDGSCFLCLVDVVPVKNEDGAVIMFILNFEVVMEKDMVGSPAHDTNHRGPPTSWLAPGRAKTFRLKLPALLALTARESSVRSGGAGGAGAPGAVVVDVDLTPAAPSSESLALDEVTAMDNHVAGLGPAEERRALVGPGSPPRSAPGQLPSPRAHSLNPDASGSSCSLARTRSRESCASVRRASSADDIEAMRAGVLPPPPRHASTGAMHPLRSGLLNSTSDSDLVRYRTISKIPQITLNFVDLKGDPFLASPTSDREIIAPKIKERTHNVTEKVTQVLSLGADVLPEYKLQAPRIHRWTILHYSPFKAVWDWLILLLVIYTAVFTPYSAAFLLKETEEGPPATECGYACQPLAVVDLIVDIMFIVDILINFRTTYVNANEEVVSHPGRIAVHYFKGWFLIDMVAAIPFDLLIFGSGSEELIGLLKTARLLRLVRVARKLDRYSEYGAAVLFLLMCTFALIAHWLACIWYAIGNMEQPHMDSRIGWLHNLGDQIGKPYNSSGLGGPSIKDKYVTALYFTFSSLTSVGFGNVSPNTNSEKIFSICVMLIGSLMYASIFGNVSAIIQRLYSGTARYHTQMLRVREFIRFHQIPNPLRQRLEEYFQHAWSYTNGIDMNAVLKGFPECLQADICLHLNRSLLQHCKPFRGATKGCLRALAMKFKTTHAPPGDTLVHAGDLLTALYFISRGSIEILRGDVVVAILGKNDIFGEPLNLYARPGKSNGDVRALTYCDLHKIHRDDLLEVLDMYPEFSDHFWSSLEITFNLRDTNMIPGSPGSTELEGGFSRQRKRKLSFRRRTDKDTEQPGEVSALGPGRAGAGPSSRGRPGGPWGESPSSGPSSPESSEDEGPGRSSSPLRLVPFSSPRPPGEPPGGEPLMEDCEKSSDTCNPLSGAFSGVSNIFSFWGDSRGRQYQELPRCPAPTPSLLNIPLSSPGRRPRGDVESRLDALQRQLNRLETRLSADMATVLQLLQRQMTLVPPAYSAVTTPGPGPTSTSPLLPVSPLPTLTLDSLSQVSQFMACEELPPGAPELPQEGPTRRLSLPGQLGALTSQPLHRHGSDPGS

| Structure (SMILES) | hERG current change (%, negative = inhibition) at 10uM |
| --- | --- |
| Cc1c(Cl)cccc1NC(=O)C(=O)NNC(=O)c1ccccc1F | 2.8% |
| Cc1cc(C)n(CC(=O)NNC(=O)CCNC(=O)c2ccccc2Cl)n1 | -16.1% |
| CC1CCC(NC(=O)CCNC(=O)c2ccc(Br)cc2)CC1 (stereo not shown) | 9.75% |
| c1ccc(-c2n[nH]c(-c3ccccc3)c2-c2nc3ccccc3[nH]2)cc1 | -10.3% |
| Cc1cc(/C=N\NC(=O)CC(=O)NC2CCCCC2)c(C)n1-c1ccc(Cl)cc1 | 3.96% |
| C=CCN(CC=C)C(=O)C(=O)c1ccn(-c2c(C)csc2C(=O)OC)c1 | -70.3% |
| Nc1[nH]nc2nc(N3CCCC3)nc(-c3ccccc3)c12 | 3.94% |
| COC(=O)c1ccc(CS(=O)(=O)c2ccc(C)cc2)o1 | 18.9% |
| Nc1ccc(C(=O)NCC(=O)O)cc1 | 18.1% |
| CC1=C(C(=O)Nc2ccccc2)C(c2cc(CN3CCOCC3)cs2)C2=C(CCCC2=O)N1 (stereo not shown) | 10.9% |
| COc1ccc(C(=O)NC(CCSC)C(=O)NC2CC2)cc1 (stereo not shown) | -9.33% |
| Nc1nc(SCc2ccc(F)cc2)ns1 | 6.5% |
| Cl.O=C(NCCCN1CCOCC1)C(=O)c1c[nH]c2ccccc12 | -3.03% |
| CCCCN(C)C(=O)c1nc2ccccn2c1CN1CCSCC1 | 6.32% |
| Cn1c(=O)[nH]c(=O)c2c1nc(NC1CCCCC1)n2CCO | -16% |
| O=C(O)[C@H](Cc1ccccc1)NC(=O)C(c1ccccc1)(c1ccccc1)c1ccccc1 | 22.6% |
| O=C1CN(C(=O)COC(=O)CNS(=O)(=O)c2ccccc2)c2ccccc2N1 | 23.8% |
| CCOC(=O)c1c(C)c(C(=O)NCc2ccco2)c(C)n1Cc1ccccc1 | -1.22% |
| O=C(O)CC(NC(=O)C1CCCCC1)c1ccc(OC2CCCC2)cc1 (stereo not shown) | 8.05% |
| O=C(/C(N=Nc1cccc(C(F)(F)F)c1)=C(/O)c1cccs1)C(F)(F)F | 0.282% |

| Structure (SMILES) | hERG current change (%, negative = inhibition) at 10uM |
| --- | --- |
| COc1cc(C(=O)Nc2ccc3c(c2)ncn3C(C)(C)C)cc(OC)c1OC | 9.04% |
| Cc1cccc(-n2ncc3c(N4CCCc5ccccc54)ncnc32)c1 | -8.09% |
| O=C(O)CCn1c(SCc2cc(=O)n3ccccc3n2)nc2ccsc2c1=O | 26.7% |
| CC(C)(C)c1ccc(C(=O)NCC(=O)NCc2ccccn2)cc1 | -8.45% |
| COc1ccc(-c2csc3nc(C)nc(N4CCCCC4)c23)cc1OC | -7.85% |
| Fc1ccc(Cn2nnnc2C(c2ccc(F)cc2)N2CC=C(c3ccc(F)cc3)CC2)cc1 (stereo not shown) | -2.44% |
| CCOc1ccc2[nH]c(=O)c(C(c3nnnn3CC3CCCO3)N3CCc4ccccc4C3)cc2c1 (stereo not shown) | -27.9% |
| CCCOCC(O)COc1ccccc1C(=O)N1CCOCC1 (stereo not shown) | 10% |
| CCCCN(C)S(=O)(=O)c1ccc(C(=O)Nc2nnc(-c3ccco3)o2)cc1 | -7.77% |
| COc1ccc(N2CCN(CC(=O)Nc3ccc(C)c(C)c3)CC2)cc1 | -17.3% |
| CCOC(=O)c1cc(CC)sc1NC(=O)CCC(=O)O | 14.4% |
| CCn1c(O)c(C=NCCN2CCOCC2)sc1=S | -2.65% |
| CC/C(=N\NC(=S)Nc1ccc(OC)cc1)c1ccc(OC(F)F)cc1 | -4.32% |
| COC(=O)CNC(=O)COC(=O)/C=C/c1ccccc1[N+](=O)[O-] | -2.63% |
| NNC(=O)c1ccc(COCC(F)(F)F)cc1 | 12.6% |
| CC(C(=O)N1CCN(C2c3ccccc3-c3ccccc32)CC1)N1C(=O)c2ccccc2C1=O (stereo not shown) | -13.3% |
| S=C(NCc1ccccc1)NCc1ccccc1 | 7.96% |
| CCN(Cc1cc(=O)n2ccsc2n1)Cc1nc2ccccc2c(=O)[nH]1 | 0.658% |
| CC(=O)Oc1c(Cl)cc(Cl)cc1/C=C/c1ccc2ccccc2n1 | -3.87% |
| O=C(NNC(=O)NC1CCCCC1)NC1CCCCC1 | 17.8% |

| Structure (SMILES) | hERG current change (%, negative = inhibition) at 10uM |
| --- | --- |
| COc1ccc(NC(=S)N2CCN(C)CC2)cc1 | 11% |
| NS(=O)(=O)c1ccc(NC(=S)Nc2ccc(Br)c(Cl)c2)cc1 | 21.3% |
| Cc1c(C#N)c(O)[nH]c(=O)c1N=Nc1ccc(S(N)(=O)=O)cc1 | 13.9% |
| Nn1c(=O)c2ccccc2n2c(SCc3ccc(C(F)(F)F)cc3)nnc12 | -21.4% |
| CC(OC(=O)CCC1CCCC1)C(=O)Nc1ccccc1[N+](=O)[O-] (stereo not shown) | 4.42% |
| CC(C)c1ccc2oc(=O)cc(CN3CCCCC3)c2c1 | -12.8% |
| Cc1ccc(/C=N/N=C2/NC(=O)C(CC(=O)Nc3ccccc3)S2)o1 (stereo not shown) | 6.65% |
| Cc1ccc(S(=O)(=O)CC(=O)NCc2ccccc2)cc1 | 4.53% |
| CCC(CC)C(=O)Nc1cccc(C(=O)NCCc2ccc(S(N)(=O)=O)cc2)c1 | 12.9% |
| Nc1c(C(=O)Nc2ccc3c(c2)OCCO3)nnn1Cc1cccc(Cl)c1 | -8.28% |
| COc1ccc(-c2nnc(SCC(=O)O)n2C)cc1OC | 19.1% |
| CCOc1ccc(C(=O)CC(NCc2cccs2)C(=O)O)cc1 (stereo not shown) | 6.86% |
| CCOC(=O)Cc1nnc2c(Nc3ccc(C)cc3)nc3nonc3n12 | -5.67% |
| O=C(COC(=O)COc1ccccc1)Nc1ccc(Cl)cn1 | 7.56% |
| O=C(COC(=O)CNC(=O)c1ccccc1)Nc1nnc(-c2ccccc2)o1 | -0.688% |
| O=C(COc1c(F)c(F)cc(F)c1F)NC(=O)NC1CCCC1 | -0.615% |
| COCCOC(=O)c1c(NC(=O)CN2CCOCC2)sc(C(N)=O)c1C | -1.58% |
| O=C(c1cccc(-n2cccc2)c1)N1CCN(S(=O)(=O)c2ccc(F)cc2)CC1 | -34.7% |
